For one assay, the system named is female DIO mice. In words: Multiple dose diet-induced obese (DIO) mice: body weight and food consumption. The assay is classed as in vivo, Female C57BL/6N mice. The settings on record: vs vehicle or dulaglutide. How it is done: Female C57BL/6N Charles River mice were housed in groups in a specific pathogen-free barrier facility on a 12 hour light/12 hour dark cycle with free access to water and standard or high-fat diet (ssniff adjusted Fat Diet E15797). After 20 weeks of pre-feeding on high-fat diet, mice were stratified for body weight to treatment groups (n=8), so that each group had similar mean body weight. An age-matched group with ad-libitum access to standard chow (ssniff R/M-H, V1534-0) was included as standard control group. A dulaglutide treated group was also included as comparator. Prior to the start of treatment, mice were subcutaneously (s.c.) injected with vehicle solution and weighed for 3 days to acclimate them to the procedures.
1) Acute effect on blood glucose in fed female DIO mice: initial blood samples were taken just before first administration (s.c.) of vehicle (phosphate buffer solution) or first administration of GLP-1 RA/FGF21 Fc fusion proteins (dissolved in phosphate buffer), respectively. The volume of administration was 5 or 10 mL/kg, depending on concentration of stock solution. The animals had access to water and their corresponding diet during the experiment. Blood glucose levels were measured at t=0 hours, t=1 hour, t=2 hours, t=3 hours, t=4 hours, t=6 hours and t=24 hours (method: Accu-Check glucometer). Blood sampling was performed by tail incision without anaesthesia.
2) Chronic effect on body weight in female DIO mice: mice were treated once weekly, every 8th day in the morning at the beginning of the light phase with either vehicle or test compounds for 4 weeks. Body weight and food consumption were recorded daily. Two days before start of treatment and on day 26, total fat mass was measured by nuclear magnetic resonance (NMR).

The subject of assay [1] is female diabetic db/db mice. In words: Blood glucose-lowering effects of multiple subcutaneous doses in fed, female diabetic db/db mice. The assay is classed as in vivo. How it is done: Female, healthy, lean (BKS.Cg-(lean)/OlaHsd or BKS.Cg-Dock7(m)+/+Lepr(db)J) and diabetes-prone, obese db/db (BKS.Cg-+Leprdb/+Leprdb/OlaHsd or BKS.CG-m+/+Lepr(db)/J) mice were ordered from Envigo RMS Inc. or Charles River Laboratories. All animals were group housed in shoebox cages with wood chip bedding and were acclimated for approximately 2 to 3 weeks prior to dosing phase.
Mice were housed under vivarium conditions including a 12 hour light/12 hour dark cycle (light phase 04:00 AM-4:00 PM), a room temperature between 20-26° C. and a relative humidity between 30-70%. All animals had free access to Greenfield city water and a Purina Fomulab Diet 5008. At the study start mice were approximately 10-12 weeks old.
Blood was collected for a HbA1c and blood glucose measurement on day 9 via tail clips. Blood glucose concentrations were measured using AlphaTRAK glucometers extended range (code 29 strips). Glucometer measurements were taken prior to any other in life activities and were performed in duplicate. If the values differed by more than 20 mg/dL (calculated glucometer value) a third value was recorded. Body mass measurements were collected on days 9 and 15. HbA1c and body mass values were used for block randomization. Animals were assigned to treatment groups (n=8/group) and to new cages and cage mates (n=4 animals/cage) on day 15 according to block randomization results. The lean group was included in the study as an age-matched, healthy reference group.
Animals were either treated with a subcutaneous injection volume of 5 ml/kg of vehicle (sterile PBS), dulaglutide, SEQ ID NO: 8 or SEQ ID NO: 7 once on days 1, 8, 15, 22, and 27 of the dosing phase. Dosing was completed between 10:00 and 12:00 AM and was adjusted to the most recent body mass recording of each individual. Injection solutions including Trulicity (Dulaglutide Pen) were prepared by addition of sterile PBS to the stock solutions or Pen formulation in order to achieve the appropriate concentrations.
1) Blood glucose concentrations in morning-fed animals: Animals had unlimited access to water and feed during the experiment. Blood glucose was measured prior to any other in life activities between 10:00 to 12:00 AM on days 1, 2, 8, 9, 15, 16, 22, 23, 27, and 28 as well as 24 hours post-dose on days 2, 9, 16, 23, and 28. In addition, on days 1 and 22, blood was collected 1, 2, 3, 4, 6 and 24 hours post-dose (FIG. 11). Approximately 5 μL of blood were collected via tail clip and blood glucose measurements were performed in duplicate using AlphaTRAK glucometers with the extended range (code 29 strips). If the values differed by more than 20 mg/dL (calculated glucose value) then a third value was recorded. The Area Under the Curve (AUC) was calculated by the trapezoid method for each individual and time period as indicated.
2) HbA1c analysis: Blood was collected via a tail clip on day 9 of the pre-dose phase and day 36 of the dosing phase. Blood was collected into a 5 μL non-additive micro capillary tube and immediately placed into a centrifuge tube containing hemolysate. The tube was shaken vigorously to mix the hemolysate with the blood and placed on a rocker to ensure the blood and reagent were completely mixed.
Statistical analyses: Data are depicted as means±SEM. […]

The subject of another assay is DIO NASH mice. In words: DIO-NASH mouse model. The assay is classed as in vivo, Male C57BI/6J mice. The settings on record: 50 mg/kg once-weekly s.c. for 8 weeks, vs dulaglutide. How it is done:
Male C57BI/6J mice at 5 weeks of age were obtained from JanVier (JanVier labs, France), and each group housed 5 animals per cage under a 12 hour dark/12 hour light cycle. Room temperature was controlled to 22° C. 1° C., with 50%±10% humidity. Animals had ad libitum access to diet high in fat (40%, of these 18% trans-fat), 40% carbohydrates (20% fructose) and 2% cholesterol (D09100301, Research Diet, United States) previously described as the AMLN diet (Clapper et al. (2013) Am J Physiol Gastrointest Liver Physiol 305: G483-G495), or regular rodent chow (Altromin 1324, Brogaarden, Denmark), and tap water (lean chow, n=10-12). After 26 weeks, liver biopsies were performed for histological assessment of individual fibrosis and steatosis staging at baseline.
Mice were pretreated with enrofloxazin (Bayer, Germany) (5 mg/mL/1 mL/kg) one day before being biopsied. Prior to biopsy, mice were anesthetized with isoflurane (2%-3%) in 100% oxygen. A small abdominal incision in the midline was made and the left lateral lobe of the liver was exposed. A cone shaped wedge of liver tissue (50-100 mg) was excised from the distal portion of the lobe fixed in 4% paraformaldehyde for histology. The biopsy procedure previously described by Clapper et al. was refined using electrocoagulation of the cut surface of the liver by means of bipolar coagulation using ERBE VIO 1000 electrosurgical unit (ERBE, United States). The liver was returned to the abdominal cavity, abdominal wall was sutured and skin stapled. Carprofen (Pfizer, United States) (5 mg/mL-0.01 mL/10 g) and enrofloxazin (5 mg/mL-1 mL/kg) were administered intraperitoneal at the time of surgery and at post-operation day one and two, to control postoperative pain relief and infection, respectively. Following biopsy procedure animals were single housed and kept on AMLN diet for 3 weeks to recover. Stratification and randomization into study groups of 10-12 animals was based on individual disease staging as assessed by baseline liver biopsies.
Animals were then treated with 50 mg/kg GLP-1RA/FGF21 Fc fusion protein, 0.6 mg/kg dulaglutide, or vehicle (PBS) once-weekly subcutaneously injections for further 8 weeks either on AMLN or chow diet. Subsequently animals were euthanized, liver weights were determined, and liver tissue collected for histological and biochemical analyses (see FIG. 13).
Baseline liver biopsy and terminal samples were collected from the left lateral lobe (about 100 mg) and fixed overnight in 4% paraformaldehyde. Liver tissue was paraffin embedded and sectioned (3 μm thickness). To assess hepatic morphology and fibrosis, sections were stained with Hematoxylin and Eosin and Sirius Red, respectively, followed by analysis with Visiomorph software (Visiopharm, Denmark). Histological assessment and scoring was performed by a pathologist blinded to the study. NAFLD activity score (NAS) (steatosis, inflammation, ballooning degeneration) and fibrosis stage were performed using the clinical criteria outlined by Kleiner et al. (2005) Hepatology 41: 1313-1321. Data are presented in two different formats in FIG. 14 and FIG. 15.

B1: SEQ ID NO: 8: GLP-1RA/FGF21 Fc fusion protein (protein)
chain: GHGEGTFTSDKSKQLEEEAVRLFIEWLKAGGPKKIRYSGGGGGGGSGGGGSGGGGSA[… human IgG1 Fc with changes …]GGGSGSAHPIPDSSPLLQFGGQVRQRYLYTDDACQTEAHLEIREDGTVGGAADQSPESLLQLKALKPGVIQILGVKTSRFLCQRPDGALYGSLHFDPEACSFRELLLEDGYNVYQSEAHGLPLHLPGCKSPHRDPAPRGPARFLPLPGLPPAPPEPPGILAPQPPDVGSSDPLSMVYPSQGRSPSYAS
modifications: Fusion Protein
notes: GLP-1RA/FGF21 Fc fusion protein
In the case of B1, the body weight result in the assay with female DIO mice (once weekly dosing for 4 weeks) is recorded as “significantly lost more body weight than the vehicle or dulaglutide treated animals”. For the same molecule, the cumulative food consumption entry in the assay with female DIO mice (once weekly dosing, end of the study) was “cumulatively consumed more food than vehicle or dulaglutide treated animals”. The blood glucose levels result in assay [1] (24 hour profile, vs vehicle or dulaglutide) is recorded as “lowering effect on blood glucose levels was significantly greater than in vehicle or dulaglutide treated animals”. Besides, the HbA1c entry in assay [1] (end of the study (day 36), vs vehicle or dulaglutide) was “more pronounced suppression of HbA1c increase”. Further, in assay [1] (highest dose, 24 hour blood glucose profile on day 22 of treatment), the blood glucose levels entry is “reduction of blood glucose levels to normal non-diabetic animal levels”. In addition, in the assay on DIO NASH mice, the NAFLD activity score result is given as “superior to those of GLP-1 agonism alone”, the liver cholesterol content entry is listed as “superior to those of GLP-1 agonism alone”, the “liver total lipid content” value is listed as “superior to those of GLP-1 agonism alone” and the liver triglyceride content entry was “superior to those of GLP-1 agonism alone”. For the same molecule, the liver weight entry in the assay on DIO NASH mice was “superior to those of GLP-1 agonism alone”.

For the origin of these results see patent US20230250147A1, “GLP-1R AGONISTIC PEPTIDES WITH REDUCED ACTIVITY” (SANOFI, priority 2020, published 2023).
